Reference: the RNAGym collection of RNA variant scans (doi:10.1073/pnas.2313332121)
Variants at the floor of the assay are shown more often than the library holds them.

B1: TPR 5TU (parent)
chain: GGAUCUUCUCGAUCUAACAAAAAAGACAAAUCUGCCACAAAGCUUGAGAGCAUCUUCGGAUGCAGAGGCGGCAGCCUUCGGUGGCGCGAUAGCGCCAACGUUCUCAACUAUGACACGCAAAACGCGUGCUCCGUUGAAUGGAGUUUAUCAUG

Variants of: B1
Assay: polymerase ribozyme fitness, log enrichment relative to wild type (log ratio); higher = more active; in vitro selection for triplet polymerase activity
Procedure, shortened: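 A heterodimeric triplet polymerase ribozyme had each of its subunits mutagenized by PCR into a library, which was transcribed. One round of in vitro selection, done in triplicate, annealed each library with a biotinylated primer, its partner subunit and triplets, then incubated it frozen at −7 °C before gel excision of extended constructs, streptavidin-bead capture and RT-PCR. Fitness is the logarithm of genotype enrichment relative to wild-type enrichment, based on Illumina sequencing of inputs and outputs and inverse-variance-weighted replicate averages. A base-2 logarithm is used, and genotypes were kept only with ≥10 input reads and ≥1 read per output.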

Row | Variant | polymerase ribozyme fitness (log ratio)
1 | A40G G94A A115U C131G G143U | ≤ -4.2
2 | A41C C57G G83A C108A G133A | ≤ -4.2
3 | A40G C54G G126A | -3.46
4 | A41C C54U C57G G67C G83C C131U U144A A150C | ≤ -4.2
5 | A41C C57U U82C G141A | -1.09
6 | A40U C96G A137U C149U | ≤ -4.2
7 | A40U A49C C51U C69G U78A G117A | ≤ -4.2
8 | A40U C54A C103G C125A | ≤ -4.2
9 | A40G C76G C103G G126U | ≤ -4.2
10 | A40G C43U G50C G100A A106U U130C | ≤ -4.2
11 | A40U C79A C87U | ≤ -4.2
12 | A40U U77A G92C G124A | ≤ -4.2
13 | A40U C93U A110G C149A | ≤ -4.2
14 | A40G U45A G84A U102G | ≤ -4.2
15 | A40U C51U A73U C103G G128U | ≤ -4.2
16 | A40G U53A C96A A137C G141A | ≤ -4.2
17 | A40G C54U A73C G83C G86U U101G A113G C118A | ≤ -4.2
18 | A40G U44A G46A G59C U90G C99A | ≤ -4.2
19 | A40U A89C | -0.129
20 | A40G G58C G94A G141A | -3.65
21 | A40U G86A G140U A150C | ≤ -4.2
22 | A41C A73U G94C | ≤ -4.2
23 | A41C C43U G84C | ≤ -4.2
24 | A40G C87A | ≤ -4.2

Row | Variant | polymerase ribozyme fitness (log ratio)
25 | A40G U90A | ≤ -4.2
26 | A41C A107G U148C | ≤ -4.2
27 | A40U C114U A121C | -2.44
28 | A40G C85G U90G C99U U109G | ≤ -4.2
29 | A40G G92U C108U G124A G128U | ≤ -4.2
30 | A40U U53G G83A C87U U101C G141C | ≤ -4.2
31 | A41C C51U G86U C93U C118U G128A | ≤ -4.2
32 | A41C C54U G67U U139C | ≤ -4.2
33 | A41C A66G C75U G94U U104C A107G A113G | ≤ -4.2
34 | A41C C43U G59U C69A C76U | ≤ -4.2
35 | A40U A41G A49U U56C U61G G83A G86U C125U | ≤ -4.2
36 | A40U G70A G88A A89C C108A | ≤ -4.2
37 | A41C C51U G65C G136C | ≤ -4.2
38 | A40G C118U | -2.18
39 | A40U A41G A52C U55A U78A C93U U139C U146C | ≤ -4.2
40 | A40U G86U G94A | ≤ -4.2
41 | A40U G80A C87A U127G A147C | ≤ -4.2
42 | A41C C54G C85U A106G G126A A138C | ≤ -4.2
43 | A40G C51G C57U C96A G112A A113C G136A | ≤ -4.2
44 | A40U U78G C96U A113U A119U U135A G143U | ≤ -4.2
45 | A41C A73U U102G G124A | ≤ -4.2
46 | A40G G42C C63G C72A C125A | ≤ -4.2
47 | A40U C51A G59A G68C | ≤ -4.2
48 | A40U U109A | -1.86

Row | Variant | polymerase ribozyme fitness (log ratio)
49 | A40U G70C U90C C103U | ≤ -4.2
50 | A41C A49U C57A G88U U101C G133A | ≤ -4.2
51 | A40G G42C U56G G88C A106U G124U G133U U139A A142U | ≤ -4.2
52 | A41C C57U C85G G117A C149G | ≤ -4.2
53 | A41C C54U C85A C103A G117A G133C A137U | ≤ -4.2
54 | A40U G50A C93A A150G | ≤ -4.2
55 | A41C C57A C99G U104C G126C U144G | -3.09
56 | A40G G80A G94A C96U C118A U135G | ≤ -4.2
57 | A41C C63A U77A C95U U127G G136U U144C | ≤ -4.2
58 | A40G C87U C93U A98C G136A U139G G141C | ≤ -4.2
59 | A40G U55G U56A G88C | ≤ -4.2
60 | A40U A73G C99G C105G | ≤ -4.2
61 | A41C A47C A60U | -2.01
62 | A40G C79U C85G C103U A122U | ≤ -4.2
63 | A40U G74C C93U G143U U144A A150G | ≤ -4.2
64 | A41C A49U U53A C69U C72U U109A U139A | ≤ -4.2
65 | A40G U44G G68C U78G G83A A115G C116A | ≤ -4.2
66 | A40G G65U G83C U102A | ≤ -4.2
67 | A40G C57A C87A C95A C116A G128U U130A C131G | ≤ -4.2
68 | A40G C75G A97G | ≤ -4.2
69 | A40U G68C C79U G84A C96A A138C | ≤ -4.2
70 | A40G C79A C93A G124A | ≤ -4.2
71 | A41C C43A A91C C99U A113U | ≤ -4.2
72 | A40G C57U U111G U146C | ≤ -4.2

Row | Variant | polymerase ribozyme fitness (log ratio)
73 | A40U U61A A122G | -1.1
74 | A40G G59C C87U G133U G140C U151A | ≤ -4.2
75 | A40G U53G C54U G74A G84A G92U A106U C114U G124A | ≤ -4.2
76 | A40U C87U A91U C108G A115G | ≤ -4.2
77 | A41C A52C C63A A66C G83C A113U U145C | ≤ -4.2
78 | A40U U55A G58C C85G A119U | -2.59
79 | A40G C93U C99U | -4.16
80 | A40U U77C C85U C103A | ≤ -4.2
81 | A40U C105G | -0.905
82 | A40G C63A U90G U134G | ≤ -4.2
83 | A40U A97G G124U G133C U139A U148G C149G | ≤ -4.2
84 | A40G G59C A66G G88C | ≤ -4.2
85 | A40G U56A G67A G83A | ≤ -4.2
86 | A40U G42C U56A C85A A107G U139A G140C A147G | ≤ -4.2
87 | A40G C79G U145A | ≤ -4.2
88 | A40U G92A A120U C132A G141C | ≤ -4.2
89 | A41C A47C A60U U148C | ≤ -4.2
90 | A40U G42A G68A C75G C93A A121U | ≤ -4.2
91 | A41C C43A C72G U78A C99U | ≤ -4.2
92 | A40U G86C G152A | ≤ -4.2
93 | A40G G83U A113C G126U G143U | ≤ -4.2
94 | A40G G80C U90G | ≤ -4.2
95 | A40G U61G A91G G94U U145A | ≤ -4.2
96 | A40U U101G A113C | ≤ -4.2

Row | Variant | polymerase ribozyme fitness (log ratio)
97 | A40U G84C A89U A115U C125U | ≤ -4.2
98 | A40G U44C C99U | ≤ -4.2
99 | A40U U61A G117U G126C G133A | ≤ -4.2
100 | A40U C51U G83A | -0.935
101 | A40G C93A G136U | ≤ -4.2
102 | A40G G92C G136U U146G | ≤ -4.2
103 | A40U U55G G58A A97G | -0.0754
104 | A40U G42C C79A A97G G141C | ≤ -4.2
105 | A41C A91U A106G G124A | ≤ -4.2
106 | A40G G74A A89C C95G A120C G141A | ≤ -4.2
107 | A40G U53A G84C C95A A142C | ≤ -4.2
108 | A40G G70A U109C | ≤ -4.2
109 | A41C A47G | -0.27
110 | A40G G58C U102G G136A | ≤ -4.2
111 | A40U C75G A91U | ≤ -4.2
112 | A41C C69A U102A C118U | ≤ -4.2
113 | A40U C76U | -0.102
114 | A40U U44A G59C C87G U104G G124A | ≤ -4.2
115 | A40U A41U G46A C57A C87A G92U | 0.0643
116 | A41C A47C U55G C76A G81C C87G C96A G126U | ≤ -4.2
117 | A40G U45A C51U G65U G68U G83A A110C C114U | ≤ -4.2
118 | A40U G83C C96A G152A | -3.95
119 | A40U A52G G94A C103U C108G | ≤ -4.2
120 | A40U C95U | -1.07

Row | Variant | polymerase ribozyme fitness (log ratio)
121 | A40G G71A G128A U148A | ≤ -4.2
122 | A40U G88U C103A | ≤ -4.2
123 | A40U G50U A60C A73G C85U U151G | ≤ -4.2
124 | A40U G42A C63U C114U A119C G141U G143A | ≤ -4.2
125 | A41C A47C A52U G74A U102G A119U G136C U139G U146G | ≤ -4.2
126 | A40G C108G G141C U148A | ≤ -4.2
127 | A40G G50C G67C U77G C95U U101C U109G A110C | ≤ -4.2
128 | A40U A47C C51U U82C C118G | -2.44
129 | A40U A60U | -0.238
130 | A40U C95U G124C G133U | ≤ -4.2
131 | A40G G71A A137G | ≤ -4.2
132 | A40U G141U | 0.96
133 | A40U A60U G67U G74A | ≤ -4.2
134 | A40U A60G A89U U134C | -0.16
135 | A40U C87G G133U U135G A142G | ≤ -4.2
136 | A40U G86U C93U C149U | -3.56
137 | A41C C54G G58U G94U G128C | ≤ -4.2
138 | A40U U77A U82A | ≤ -4.2
139 | A40U G42C C85A A113U C116A | ≤ -4.2
140 | A40G U61A A138U | ≤ -4.2
141 | A41C A60G C69U G83A A119G U151A | ≤ -4.2
142 | A40U A47G A60G C87G A91G G92A | ≤ -4.2
143 | A40G G74A G86U C93A G100C A107G | ≤ -4.2
144 | A40G G65C A91U | ≤ -4.2

Row | Variant | polymerase ribozyme fitness (log ratio)
145 | A41C C43U A60G G68A G86U A122G | ≤ -4.2
146 | A40U A60G A66U A73G A91G C99G | ≤ -4.2
147 | A40G C54A G68A G92A | ≤ -4.2
148 | A40G G42C C57U G59A C93G | ≤ -4.2
149 | A40U A60C G88C A121U G126U | ≤ -4.2
150 | A40G C85A A110G | ≤ -4.2
151 | A40U A49C C54G G70C C95G G126U A137U | ≤ -4.2
152 | A40U C69U C85G U104G U146G | ≤ -4.2
153 | A40U U55C U78G U151A | ≤ -4.2
154 | A40U U53C G74U U101G | ≤ -4.2
155 | A40U A120U G133C | -1.72
156 | A41C A49C C75A C95A | ≤ -4.2
157 | A40G G42U C103G | ≤ -4.2
158 | A40U G68C U77A G124A A150C | ≤ -4.2
159 | A40U G65A G70C U102G A121G | ≤ -4.2
160 | A40U A52U U55A A138G | ≤ -4.2
161 | A40G U56G C57A C69U C93A A98G | ≤ -4.2
162 | A40U A49C A60G C85G C103G C114U A115G | ≤ -4.2
163 | A40U G126U U148A | ≤ -4.2
164 | A41C C63U G67A C69U G94C G117A G124A U139G | ≤ -4.2
165 | A40U G92U A98C C103G A120C U134A | -3.87
166 | A40G C54U U78G U90G C93G C123A | ≤ -4.2
167 | A40G C54U C96U G141U | -2.2
